Laboratory results taken from patent publication US20230093512A1 (NANJING GENSCRIPT BIOTECH, published 2023).

Experiments:
[1] = molecular target: human PD-L1 (PD-L1 aAPC/CHO-K1 cells) (human, UniProt Q9NZQ7); experiment: cell-based or functional assay
TGF-β2 = molecular target: T1, TGF-β2; experiment: SPR, TGFβ ligand amine-coupled to chip, fusion protein as analyte, 25 °C, HBS-EP
T1 sequence (P61812 303-414, species assumed, looked up): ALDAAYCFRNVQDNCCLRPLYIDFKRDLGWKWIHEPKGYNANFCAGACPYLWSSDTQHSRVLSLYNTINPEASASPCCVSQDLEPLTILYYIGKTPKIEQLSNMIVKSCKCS

TGF-β1 = experiment: as above
TGF-β3 = molecular target: T2, TGF-β3; experiment: as above
T2 sequence (P10600 301-412, species assumed, looked up): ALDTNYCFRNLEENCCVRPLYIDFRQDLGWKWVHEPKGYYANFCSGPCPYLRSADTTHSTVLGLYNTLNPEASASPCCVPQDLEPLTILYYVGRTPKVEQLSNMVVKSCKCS

Chain of TGF-β1 (P01137 279-390): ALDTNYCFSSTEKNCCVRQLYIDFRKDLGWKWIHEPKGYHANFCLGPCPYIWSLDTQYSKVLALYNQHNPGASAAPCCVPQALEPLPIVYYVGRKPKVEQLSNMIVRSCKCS
Chain of UniProt Q9NZQ7 (Q9NZQ7 19-290): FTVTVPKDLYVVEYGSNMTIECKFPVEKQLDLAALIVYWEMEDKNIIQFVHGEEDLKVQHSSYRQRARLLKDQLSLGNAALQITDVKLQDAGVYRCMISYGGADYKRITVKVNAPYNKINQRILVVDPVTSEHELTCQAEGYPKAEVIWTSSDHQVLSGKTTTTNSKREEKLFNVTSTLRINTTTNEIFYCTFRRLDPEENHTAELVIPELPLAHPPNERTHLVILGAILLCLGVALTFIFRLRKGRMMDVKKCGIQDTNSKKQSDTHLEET

B1: ADD19-15-03 (other)
heavy: EVQLVQSGAEVKKPGASVKVSCKASGYIFTGYGITWVRQAPGQGLEWMGEIFPRRVQTYYSEKFKGRVTMTTDTSTSTAYMELRSLRSDDTAVYYCARDYDPYFALDYWGQGTTVTVSSASTKGPSVFPLAPSSKSTSGGTAALGCLVKDYFPEPVTVSWNSGALTSGVHTFPAVLQSSGLYSLSSVVTVPSSSLGTQTYICNVNHKPSNTKVDKRV[gap - human IgG1 Fc]
light: DIQMTQSPSSLSASVGDRVTITCRASQDVSTAVDWYQQKPGKAPKLLIYSASYRYTGVPDRFSGSGSGTDFTFTISSLQPEDIATYYCQQHYSIPFTFGQGTKLEIKRTVAAPSVFIFPPSDEQLKSGTASVVCLLNNFYPREAKVQWKVDNALQSGNSQESVTEQDSKDSTYSLSSTLTLSKADYEKHKVYACEVTHQGLSSPVTKSFNRGECGGGGSGGGGSGGGGSGGGGSGIPPHVQKSVNNDMIVTDNNGAVKFPQLCKFCDVRFSTCDNQKSCMSNCSITSICEKPQEVCVAVWRKNDENITLETVCHDPKLPYHDFILEDAASPKCIMKEKKKPGETFFMCSCSSDECNDNIIFSEEYNTSNPD
notes: Anti-PD-L1 IgG1 with TBRII-ECD at the C-terminus of the light chain by G21-linker; also called GSADD19-15-03
With B1 the “EC50, luminescence (RLU) of PD-1 effector cells co-cultured with PD-L1 aAPC/CHO-K1 cells, PD-1/PD-L1 blockade bioassay” value [1] was 0.474 nM, the Kd (TGF-β2) was 17.2 nM and the koff (TGF-β2) was 0.00411 s⁻¹. It also gave a kon (TGF-β2) of 239000 M⁻¹ s⁻¹, a Kd (TGF-β1) of 1.3 nM and a koff (TGF-β1) of 0.00042 s⁻¹. It also gave a kon (TGF-β1) of 324000 M⁻¹ s⁻¹, a Kd (TGF-β3) of 1.31 nM and a koff (TGF-β3) of 0.000385 s⁻¹. The kon (TGF-β3) was 293000 M⁻¹ s⁻¹.

B2: ADD19-15-L03-E8 (other)
heavy: EVQLVQSGAEVKKPGASVKVSCKASGYIFTGYGITWVRQAPGQGLEWMGEIFPRRVQTYYSEKFKGRVTMTTDTSTSTAYMELRSLRSDDTAVYYCARDYDPYFALDYWGQGTTVTVSSASTKGPSVFPLAPSSKSTSGGTAALGCLVKDYFPEPVTVSWNSGALTSGVHTFPAVLQSSGLYSLSSVVTVPSSSLGTQTYICNVNHKPSNTKVDKRV[gap - human IgG1 Fc]
light: DIQMTQSPSSLSASVGDRVTITCRASQDVSTAVDWYQQKPGKAPKLLIYSASYRYTGVPDRFSGSGSGTDFTFTISSLQPEDIATYYCQQHYSIPFTFGQGTKLEIKRTVAAPSVFIFPPSDEQLKSGTASVVCLLNNFYPREAKVQWKVDNALQSGNSQESVTEQDSKDSTYSLSSTLTLSKADYEKHKVYACEVTHQGLSSPVTKSFNRGECDKTHTSPPIPPHVQKSVNNDMIVTDNNGAVKFPQLCKFCDVRFSTCDNQKSCMSNCSITSICEKPQEVCVAVWRKNDENITLETVCHDPKLPYHDFILEDAASPKCIMKEKKKPGETFFMCSCSSDECNDNIIFSEEYNTSNPD
notes: also called ADD19-15-03-E8
With B2 the “EC50, luminescence (RLU) of PD-1 effector cells co-cultured with PD-L1 aAPC/CHO-K1 cells, PD-1/PD-L1 blockade bioassay” value [1] was 0.626 nM.

B3: ADD19-15-L03-E10 (other)
heavy: EVQLVQSGAEVKKPGASVKVSCKASGYIFTGYGITWVRQAPGQGLEWMGEIFPRRVQTYYSEKFKGRVTMTTDTSTSTAYMELRSLRSDDTAVYYCARDYDPYFALDYWGQGTTVTVSSASTKGPSVFPLAPSSKSTSGGTAALGCLVKDYFPEPVTVSWNSGALTSGVHTFPAVLQSSGLYSLSSVVTVPSSSLGTQTYICNVNHKPSNTKVDKRV[gap - human IgG1 Fc]
light: DIQMTQSPSSLSASVGDRVTITCRASQDVSTAVDWYQQKPGKAPKLLIYSASYRYTGVPDRFSGSGSGTDFTFTISSLQPEDIATYYCQQHYSIPFTFGQGTKLEIKRTVAAPSVFIFPPSDEQLKSGTASVVCLLNNFYPREAKVQWKVDNALQSGNSQESVTEQDSKDSTYSLSSTLTLSKADYEKHKVYACEVTHQGLSSPVTKSFNRGECDKTHTSPPSPIPPHVQKSVNNDMIVTDNNGAVKFPQLCKFCDVRFSTCDNQKSCMSNCSITSICEKPQEVCVAVWRKNDENITLETVCHDPKLPYHDFILEDAASPKCIMKEKKKPGETFFMCSCSSDECNDNIIFSEEYNTSNPD
notes: also called ADD19-15-03-E10
B3 was tested, and the “EC50, luminescence (RLU) of PD-1 effector cells co-cultured with PD-L1 aAPC/CHO-K1 cells, PD-1/PD-L1 blockade bioassay” value [1] was 0.724 nM.

B4: ADD19-15-L03-E12 (other)
heavy: EVQLVQSGAEVKKPGASVKVSCKASGYIFTGYGITWVRQAPGQGLEWMGEIFPRRVQTYYSEKFKGRVTMTTDTSTSTAYMELRSLRSDDTAVYYCARDYDPYFALDYWGQGTTVTVSSASTKGPSVFPLAPSSKSTSGGTAALGCLVKDYFPEPVTVSWNSGALTSGVHTFPAVLQSSGLYSLSSVVTVPSSSLGTQTYICNVNHKPSNTKVDKRV[gap - human IgG1 Fc]
light: DIQMTQSPSSLSASVGDRVTITCRASQDVSTAVDWYQQKPGKAPKLLIYSASYRYTGVPDRFSGSGSGTDFTFTISSLQPEDIATYYCQQHYSIPFTFGQGTKLEIKRTVAAPSVFIFPPSDEQLKSGTASVVCLLNNFYPREAKVQWKVDNALQSGNSQESVTEQDSKDSTYSLSSTLTLSKADYEKHKVYACEVTHQGLSSPVTKSFNRGECESKYGPPSPPSPIPPHVQKSVNNDMIVTDNNGAVKFPQLCKFCDVRFSTCDNQKSCMSNCSITSICEKPQEVCVAVWRKNDENITLETVCHDPKLPYHDFILEDAASPKCIMKEKKKPGETFFMCSCSSDECNDNIIFSEEYNTSNPD
notes: also called ADD19-15-03-E12
For B4, the “EC50, luminescence (RLU) of PD-1 effector cells co-cultured with PD-L1 aAPC/CHO-K1 cells, PD-1/PD-L1 blockade bioassay” value [1] was 0.704 nM.

B5: ADD19-15-L03-G2 (other)
heavy: EVQLVQSGAEVKKPGASVKVSCKASGYIFTGYGITWVRQAPGQGLEWMGEIFPRRVQTYYSEKFKGRVTMTTDTSTSTAYMELRSLRSDDTAVYYCARDYDPYFALDYWGQGTTVTVSSASTKGPSVFPLAPSSKSTSGGTAALGCLVKDYFPEPVTVSWNSGALTSGVHTFPAVLQSSGLYSLSSVVTVPSSSLGTQTYICNVNHKPSNTKVDKRV[gap - human IgG1 Fc]
light: DIQMTQSPSSLSASVGDRVTITCRASQDVSTAVDWYQQKPGKAPKLLIYSASYRYTGVPDRFSGSGSGTDFTFTISSLQPEDIATYYCQQHYSIPFTFGQGTKLEIKRTVAAPSVFIFPPSDEQLKSGTASVVCLLNNFYPREAKVQWKVDNALQSGNSQESVTEQDSKDSTYSLSSTLTLSKADYEKHKVYACEVTHQGLSSPVTKSFNRGECGSIPPHVQKSVNNDMIVTDNNGAVKFPQLCKFCDVRFSTCDNQKSCMSNCSITSICEKPQEVCVAVWRKNDENITLETVCHDPKLPYHDFILEDAASPKCIMKEKKKPGETFFMCSCSSDECNDNIIFSEEYNTSNPD
notes: also called ADD19-15-03-G2
In the case of B5, the “EC50, luminescence (RLU) of PD-1 effector cells co-cultured with PD-L1 aAPC/CHO-K1 cells, PD-1/PD-L1 blockade bioassay” value [1] is reported as 0.665 nM.

B6: ADD19-15-00 (antibody, human IgG1, kappa)
heavy: EVQLVQSGAEVKKPGASVKVSCKASGYIFTGYGITWVRQAPGQGLEWMGEIFPRRVQTYYSEKFKGRVTMTTDTSTSTAYMELRSLRSDDTAVYYCARDYDPYFALDYWGQGTTVTVSSASTKGPSVFPLAPSSKSTSGGTAALGCLVKDYFPEPVTVSWNSGALTSGVHTFPAVLQSSGLYSLSSVVTVPSSSLGTQTYICNVNHKPSNTKVDKRV[gap - human IgG1 Fc]
light: DIQMTQSPSSLSASVGDRVTITCRASQDVSTAVDWYQQKPGKAPKLLIYSASYRYTGVPDRFSGSGSGTDFTFTISSLQPEDIATYYCQQHYSIPFTFGQGTKLEIKRTVAAPSVFIFPPSDEQLKSGTASVVCLLNNFYPREAKVQWKVDNALQSGNSQESVTEQDSKDSTYSLSSTLTLSKADYEKHKVYACEVTHQGLSSPVTKSFNRGEC
notes: H1 is H0 with K214R and A297N in the Fc region; also called GSADD19-15-00; modified anti-PD-L1 mAb
With B6 the “EC50, luminescence (RLU) of PD-1 effector cells co-cultured with PD-L1 aAPC/CHO-K1 cells, PD-1/PD-L1 blockade bioassay” value [1] was 0.48 nM.

B7: ADD19-15-07 (other)
heavy: EVQLVQSGAEVKKPGASVKVSCKASGYIFTGYGITWVRQAPGQGLEWMGEIFPRRVQTYYSEKFKGRVTMTTDTSTSTAYMELRSLRSDDTAVYYCARDYDPYFALDYWGQGTTVTVSSASTKGPSVFPLAPSSKSTSGGTAALGCLVKDYFPEPVTVSWNSGALTSGVHTFPAVLQSSGLYSLSSVVTVPSSSLGTQTYICNVNHKPSNTKVDKRV[gap - human IgG1 Fc]GGGGSGGGGSGGGGSGGGGSGIPPHVQKSVNNDMIVTDNNGAVKFPQLCKFCDVRFSTCDNQKSCMSNCSITSICEKPQEVCVAVWRKNDENITLETVCHDPKLPYHDFILEDAASPKCIMKEKKKPGETFFMCSCSSDECNDNIIFSEEYNTSNPD
light: DIQMTQSPSSLSASVGDRVTITCRASQDVSTAVDWYQQKPGKAPKLLIYSASYRYTGVPDRFSGSGSGTDFTFTISSLQPEDIATYYCQQHYSIPFTFGQGTKLEIKRTVAAPSVFIFPPSDEQLKSGTASVVCLLNNFYPREAKVQWKVDNALQSGNSQESVTEQDSKDSTYSLSSTLTLSKADYEKHKVYACEVTHQGLSSPVTKSFNRGECGGGGSGGGGSGGGGSGGGGSGIPPHVQKSVNNDMIVTDNNGAVKFPQLCKFCDVRFSTCDNQKSCMSNCSITSICEKPQEVCVAVWRKNDENITLETVCHDPKLPYHDFILEDAASPKCIMKEKKKPGETFFMCSCSSDECNDNIIFSEEYNTSNPD
notes: TBRII-ECD on both heavy and light chain C-termini; also called GSADD19-15-07
B7 gave a Kd (TGF-β2) of 8.14 nM, a koff (TGF-β2) of 0.00228 s⁻¹ and a kon (TGF-β2) of 280000 M⁻¹ s⁻¹. For the same binder, the Kd (TGF-β1) was 0.226 nM, the koff (TGF-β1) was 6.77e-05 s⁻¹ and the kon (TGF-β1) was 299000 M⁻¹ s⁻¹. For the same binder, the Kd (TGF-β3) was 0.542 nM, the koff (TGF-β3) was 0.000168 s⁻¹ and the kon (TGF-β3) was 310000 M⁻¹ s⁻¹.

B8: ADD19-15-10 (other)
heavy: EVQLVQSGAEVKKPGASVKVSCKASGYIFTGYGITWVRQAPGQGLEWMGEIFPRRVQTYYSEKFKGRVTMTTDTSTSTAYMELRSLRSDDTAVYYCARDYDPYFALDYWGQGTTVTVSSASTKGPSVFPLAPSSKSTSGGTAALGCLVKDYFPEPVTVSWNSGALTSGVHTFPAVLQSSGLYSLSSVVTVPSSSLGTQTYICNVNHKPSNTKVDKRV[gap - human IgG1 Fc]GGGGSGGGGSGGGGSGGGGSGIPPHVQKSVNNDMIVTDNNGAVKFPQLCKFCDVRFSTCDNQKSCMSNCSITSICEKPQEVCVAVWRKNDENITLETVCHDPKLPYHDFILEDAASPKCIMKEKKKPGETFFMCSCSSDECNDNIIFSEEYNTSNPDGGGGSGGGGSGGGGSQCFCHLCTKDNFTCVTDGLCFVSVTETTDKVIHNSMCIAEIDLIPRDRPFVCAPSSKTGSVTTTYCCNQDHCNKIELPTTVKSSPGLGPVE
light: DIQMTQSPSSLSASVGDRVTITCRASQDVSTAVDWYQQKPGKAPKLLIYSASYRYTGVPDRFSGSGSGTDFTFTISSLQPEDIATYYCQQHYSIPFTFGQGTKLEIKRTVAAPSVFIFPPSDEQLKSGTASVVCLLNNFYPREAKVQWKVDNALQSGNSQESVTEQDSKDSTYSLSSTLTLSKADYEKHKVYACEVTHQGLSSPVTKSFNRGEC
notes: Heavy chain H5 = H2 with TBRI-ECD fused to its C-terminus by G15-linker; also called GSADD19-15-10
B8 showed a Kd (TGF-β1) of 6.73 nM, a koff (TGF-β1) of 0.00134 s⁻¹ and a kon (TGF-β1) of 200000 M⁻¹ s⁻¹. For the same binder, the Kd (TGF-β3) was 5.19 nM, the koff (TGF-β3) was 0.00107 s⁻¹ and the kon (TGF-β3) was 206000 M⁻¹ s⁻¹.
